The values that follow come from patent publication US20220125947A1.

This assay concerns the target TCR Vδ2 (TRDV2) on γδ T cells in PBMCs (human), A0JD36. The experiment in a line: cell-based or functional assay.

Sequence of TCR Vδ2 (TRDV2) on γδ T cells in PBMCs (human), A0JD36 (A0JD36 20-115, stated change not applied): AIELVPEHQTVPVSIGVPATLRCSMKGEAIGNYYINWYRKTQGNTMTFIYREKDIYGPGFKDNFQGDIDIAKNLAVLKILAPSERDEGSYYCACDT

B1: VG9B203 (antibody, human IgG1, lambda)
heavy: QVQLVQSGPGLVKPSETLSLTCTVSGDSIGHYYWNWIRQPAGKGLEWIGRIYTSGSTNYNPSLKSRVTMSVDTSKNQFSLKLSSVTAADTAVYYCARSGGNFYWYFDLWGRGTLVTVSS[human IgG1 constant region omitted here]
light: QSVLTQPPSVSAAPGQKVTISCSGSSSNIGNNYVSWYQQVPGTAPKLLIYDNNKRPSGIPDRISGSKSGTSATLGITGLQTGDEADYYCGTWDSSLSAGVFGGGTKVTVLGQPKAAPSVTLFPPSSEELQANKATLVCLISDFYPGAVTVAWKADSSPVKAGVETTTPSKQSNNKYAASSYLSLTPEQWKSHRSYSCQVTHEGSTVEKTVAPTECS
In turn, B1 yielded a CD25+ (Vg9+ cells), flow staining of 19%; a CD71+ (Vg9+ cells), flow staining of 90.2%; a Granzyme B (Luminex, supernatant) of 525; an IFNγ (Luminex, supernatant) of 44. The IL6 (Luminex, supernatant) is 30; the TNFα (Luminex, supernatant) was determined as 22; the Vg9 T cell %, flow staining was found to be 4.5%.

B2: VG9B103 (antibody, human IgG1, kappa)
heavy: EVQLVQSGAEVKKPGSSVKVSCKTSGGTFSSYAISWVRQAPGQGLEWMGGIIPIFGTATYAQKFQDRVTITADKSTSTAYMELSSLRSEDTAVFYCARGVGWGTDYYYGLDVWGQGTTVTVSS[human IgG1 constant region omitted here]
light: ETTLTQSPLSSPVTLGQPASISCRSSQGLVHSDGNTYLSWLQQRPGQSPRLLIYKISNRFSGVPDRFSGSGAGTDFTLKISRVEAEDVGVYYCMQATHHPLTFGGGTKVEIKRTVAAPSVFIFPPSDEQLKSGTASVVCLLNNFYPREAKVQWKVDNALQSGNSQESVTEQDSKDSTYSLSSTLTLSKADYEKHKVYACEVTHQGLSSPVTKSFNRGEC
In the case of B2, the CD25+ (Vg9+ cells), flow staining turned out to be 46.6%; the CD71+ (Vg9+ cells), flow staining came to 96.4%; the Granzyme B (Luminex, supernatant) worked out at 3210; the IFNγ (Luminex, supernatant) turned out to be 889. This molecule also showed an IL6 (Luminex, supernatant) of 298; a TNFα (Luminex, supernatant) of 4760; a Vg9 T cell %, flow staining of 5%.

B3: VG9B380 (antibody, human IgG1, lambda)
heavy: QVQLQESGPGLVKPSETLSLTCTVSGGSISNYYWSWIRQPAGKGLEWIGRIYPSGITSYDPSLKSRVTMSLDTSKNQFSLKLTSVTAADTAVYYCAGIMGTKGAFDIWGQGTMVTVSS[human IgG1 constant region omitted here]
light: QSALTQPASVSGSPGQSITISCTGTSSDVGGYNYVSWYQQHPGKAPKLLIYEVSNRPSGVSNRFSGSKSGSTASLTISGLQAEDEADYYCSSYTSTSVVFGGGTKLTVLGQPKAAPSVTLFPPSSEELQANKATLVCLISDFYPGAVTVAWKADSSPVKAGVETTTPSKQSNNKYAASSYLSLTPEQWKSHRSYSCQVTHEGSTVEKTVAPTECS
Take B3: the CD25+ (Vg9+ cells), flow staining is 15.5%; the CD71+ (Vg9+ cells), flow staining is 84.3%; the Granzyme B (Luminex, supernatant) amounted to 228; the IFNγ (Luminex, supernatant) came out at 44. Moreover, the IL6 (Luminex, supernatant) is 21; the TNFα (Luminex, supernatant) is 15; the Vg9 T cell %, flow staining was determined as 4.2%.

B4: VG9B458 (antibody, human IgG1, lambda)
heavy: QVQLVQSGPGLVKPSETLSLTCTVSGGSISNYYWSWIRQPAGKGLGWIGRIYSSGITNYNPSLKSRVTMSVDTSKNQLSLKLSSVTAADTAVYYCAGIVGVKGAFAIWGQGTMVTVSS[human IgG1 constant region omitted here]
light: QSVLTQPASVSGSPGQSITISCTGTSSDVGGYNYVSWYQQHPGKAPKLMIYEVSNRPSGVSNRFSGSKSGNTASLTISGLQAEDEADYYCSSYTSTSVVFGGGTKLTVLGQPKAAPSVTLFPPSSEELQANKATLVCLISDFYPGAVTVAWKADSSPVKAGVETTTPSKQSNNKYAASSYLSLTPEQWKSHRSYSCQVTHEGSTVEKTVAPTECS
For the molecule B4, the CD25+ (Vg9+ cells), flow staining came out at 27.6%; the CD71+ (Vg9+ cells), flow staining was 84.5%; the Granzyme B (Luminex, supernatant) was 2230; the IFNγ (Luminex, supernatant) is 1030. Also, the IL6 (Luminex, supernatant) came out at 384; the TNFα (Luminex, supernatant) came out at 4320; the Vg9 T cell %, flow staining turned out to be 3.1%.

B5: VG9B461 (antibody, human IgG1, lambda)
heavy: QVTLKESGPGLVKPSETLSLTCTVSGGSISNYYWSWIRQPAGKGLGWIGRIYSSGITNYNPSLKSRVTMSVDTSKNQLSLKLSSVTAADTAVYYCAGIVGVKGAFAIWGQGTMVTVSS[human IgG1 constant region omitted here]
light: QPVLTQSSSVSGSPGQSITISCTGTSSDVGGYNYVSWYQQHPGKAPKLMIYEVSNRPSGVSNRFSGSKSGNTASLTISGLQAEDEADYYCSSYTSTSVVFGGGTKVTVLGQPKAAPSVTLFPPSSEELQANKATLVCLISDFYPGAVTVAWKADSSPVKAGVETTTPSKQSNNKYAASSYLSLTPEQWKSHRSYSCQVTHEGSTVEKTVAPTECS
B5 displayed a CD25+ (Vg9+ cells), flow staining of 34.4%; a CD71+ (Vg9+ cells), flow staining of 85.3%; a Granzyme B (Luminex, supernatant) of 3170; an IFNγ (Luminex, supernatant) of 1350. The molecule also showed an IL6 (Luminex, supernatant) of 748; a TNFα (Luminex, supernatant) of 7900; a Vg9 T cell %, flow staining of 2.7%.

B6: VG9B462 (antibody, human IgG1, lambda)
heavy: QVQLQQSGPGLVKPSETLSLTCTVSGGSISNYYWSWIRQPAGKGLGWIGRIYSSGITNYNPSLKSRVTMSVDTSKNQLSLKLSSVTAADTAVYYCAGIVGVKGAFAIWGQGTMVTVSS[human IgG1 constant region omitted here]
light: QSVLTQPASVSGSPGQSITISCTGTSSDVGGYNYVSWYQQHPGKAPKLMIYEVSNRPSGVSNRFSGSKSGNTASLTISGLQAEDEADYYCSSYTSTSVVFGGGTKLTVLGQPKAAPSVTLFPPSSEELQANKATLVCLISDFYPGAVTVAWKADSSPVKAGVETTTPSKQSNNKYAASSYLSLTPEQWKSHRSYSCQVTHEGSTVEKTVAPTECS
B6 showed a CD25+ (Vg9+ cells), flow staining of 28.5%; a CD71+ (Vg9+ cells), flow staining of 83.6%; a Granzyme B (Luminex, supernatant) of 2640; an IFNγ (Luminex, supernatant) of 1460. The molecule also registered an IL6 (Luminex, supernatant) of 819; a TNFα (Luminex, supernatant) of 7460; a Vg9 T cell %, flow staining of 2.7%.
